Experimental findings from the supplement of paper PMC10369915 are described below.

The list shows a part of the results. Rule as the data show it: active = 3.2 or more and inactive = the rest. The signal is at background level for most entries.
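Also: displayed peptides selected on beads carrying the immobilized SH2 domain, with library peptides lacking any tyrosine serving as negative controls.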

In one experiment the target is SHP2 C-SH2 domain E139D. Nature of the experiment: enrichment score (SH2-bound / input frequency) (ratio); bacterial display of known human phosphotyrosine sites (pTyr-Var adds point mutants) read by sequencing; higher = stronger binding; tyrosines were phosphorylated by kinases first. The settings on record: peptide library: pTyr-Var.
Turning to HFGCIYHGTLL [MET_Y1093_V1092I], the enrichment score was inactive: 1.55.

Turning to LARNMYDKEYY [MET_Y1230_D1228N], the enrichment score was inactive: 0.665.

LARNMYDKEFF [MET_Y1230_D1228N_YF]: the enrichment score is inactive: 0.326.

As to HFGCVYLGTLL [MET_Y1093_H1094L], the enrichment score is inactive: 1.11.

Turning to LARDMHDKEFF [MET_Y1230_Y1230H_YF], the enrichment score was inactive: 0.49.

Turning to MSIWPYLQKID [MFSD8_Y63], the enrichment score was inactive: 2.06.

With RGKLFYQEVPA [METTL11B_Y76_A72G], the enrichment score was inactive: 1.24.

Regarding GQECKYPPTQD [METAP2_Y137_E136K], the enrichment score was inactive: 0.64.

As to LARDMHDKEYY [MET_Y1230_Y1230H], the enrichment score is inactive: 0.372.

With DDKEYYSVHNK [MET_Y1235_Y1230D], the enrichment score is inactive: 0.675.

Turning to GQECEYPPTQD [METAP2_Y137], the enrichment score is inactive: 0.577.

Consider QVQQIYSDSDL [MIB1_Y376_R371Q], for which the enrichment score was inactive: 0.697.

On to FGLTLYPNSRE [MEP1A_Y472_V469L], for which the enrichment score was inactive: 1.54.

DDKEFYSVHNK [MET_Y1235_Y1230D_YF]: the enrichment score is inactive: 0.813.

As to LARDMCDKEFF [MET_Y1230_Y1230C_YF], the enrichment score was inactive: 1.09.

For SELVRYDARVH [MET_Y971], the enrichment score was inactive: 0.639.

For QELRRYLKSGV [MICA_Y194], the enrichment score is inactive: 0.507.

For FGVTLYPNSRE [MEP1A_Y472], the enrichment score was inactive: 1.34.

Another experiment concerns the target SHP2 C-SH2 domain wild-type. Described as above. As to conditions: peptide library: pTyr-Var.
For the molecule HFGCIYHGTLL [MET_Y1093_V1092I], the enrichment score was inactive: 1.89.

As for LARNMYDKEYY [MET_Y1230_D1228N], the enrichment score is inactive: 0.54.

With LARNMYDKEFF [MET_Y1230_D1228N_YF], the enrichment score was inactive: 0.277.

As for HFGCVYLGTLL [MET_Y1093_H1094L], the enrichment score was inactive: 1.07.

With LARDMHDKEFF [MET_Y1230_Y1230H_YF], the enrichment score is inactive: 0.424.

As to MSIWPYLQKID [MFSD8_Y63], the enrichment score is inactive: 1.79.

Regarding RGKLFYQEVPA [METTL11B_Y76_A72G], the enrichment score is inactive: 1.14.

GQECKYPPTQD [METAP2_Y137_E136K]: the enrichment score is inactive: 0.52.

Regarding LARDMHDKEYY [MET_Y1230_Y1230H], the enrichment score is inactive: 0.255.

Take DDKEYYSVHNK [MET_Y1235_Y1230D]: the enrichment score is inactive: 0.661.

As for GQECEYPPTQD [METAP2_Y137], the enrichment score is inactive: 0.638.

On to QVQQIYSDSDL [MIB1_Y376_R371Q], for which the enrichment score was inactive: 0.863.

Consider FGLTLYPNSRE [MEP1A_Y472_V469L], for which the enrichment score is inactive: 1.32.

For the molecule DDKEFYSVHNK [MET_Y1235_Y1230D_YF], the enrichment score was inactive: 0.494.

Turning to LARDMCDKEFF [MET_Y1230_Y1230C_YF], the enrichment score was inactive: 0.969.

On to SELVRYDARVH [MET_Y971], for which the enrichment score is inactive: 0.503.

In the case of QELRRYLKSGV [MICA_Y194], the enrichment score is inactive: 0.505.

Consider FGVTLYPNSRE [MEP1A_Y472], for which the enrichment score is inactive: 1.17.

For a further experiment, the target named is SHP2 N-SH2 domain L43F. The description is as above. The settings on record: peptide library: pTyr-Var.
With HFGCIYHGTLL [MET_Y1093_V1092I], the enrichment score was inactive: 1.28.

With LARNMYDKEYY [MET_Y1230_D1228N], the enrichment score is inactive: 0.499.

Regarding LARNMYDKEFF [MET_Y1230_D1228N_YF], the enrichment score is inactive: 0.376.

For the molecule HFGCVYLGTLL [MET_Y1093_H1094L], the enrichment score was inactive: 1.67.

For LARDMHDKEFF [MET_Y1230_Y1230H_YF], the enrichment score was inactive: 0.981.

On to MSIWPYLQKID [MFSD8_Y63], for which the enrichment score was inactive: 1.82.

In the case of RGKLFYQEVPA [METTL11B_Y76_A72G], the enrichment score was inactive: 1.17.

For the molecule GQECKYPPTQD [METAP2_Y137_E136K], the enrichment score was inactive: 0.575.

With LARDMHDKEYY [MET_Y1230_Y1230H], the enrichment score was inactive: 0.298.

Consider DDKEYYSVHNK [MET_Y1235_Y1230D], for which the enrichment score is inactive: 0.502.

Turning to GQECEYPPTQD [METAP2_Y137], the enrichment score is inactive: 0.495.

Take QVQQIYSDSDL [MIB1_Y376_R371Q]: the enrichment score was inactive: 0.775.

Turning to FGLTLYPNSRE [MEP1A_Y472_V469L], the enrichment score is inactive: 1.31.

In the case of DDKEFYSVHNK [MET_Y1235_Y1230D_YF], the enrichment score is inactive: 0.769.

Regarding LARDMCDKEFF [MET_Y1230_Y1230C_YF], the enrichment score is inactive: 0.805.

For the molecule SELVRYDARVH [MET_Y971], the enrichment score is inactive: 0.552.

For QELRRYLKSGV [MICA_Y194], the enrichment score was inactive: 0.479.

Turning to FGVTLYPNSRE [MEP1A_Y472], the enrichment score is inactive: 1.29.

The target in the next experiment is SHP2 N-SH2 domain T42A. Described as above. As to conditions: peptide library: pTyr-Var.
Consider HFGCIYHGTLL [MET_Y1093_V1092I], for which the enrichment score was inactive: 1.24.

In the case of LARNMYDKEYY [MET_Y1230_D1228N], the enrichment score is inactive: 0.53.

Take LARNMYDKEFF [MET_Y1230_D1228N_YF]: the enrichment score was inactive: 0.254.

As for HFGCVYLGTLL [MET_Y1093_H1094L], the enrichment score was inactive: 0.966.

LARDMHDKEFF [MET_Y1230_Y1230H_YF]: the enrichment score was inactive: 0.381.

MSIWPYLQKID [MFSD8_Y63]: the enrichment score was inactive: 2.09.

In the case of RGKLFYQEVPA [METTL11B_Y76_A72G], the enrichment score is inactive: 1.24.

Take GQECKYPPTQD [METAP2_Y137_E136K]: the enrichment score was inactive: 0.55.

On to LARDMHDKEYY [MET_Y1230_Y1230H], for which the enrichment score is inactive: 0.499.

In the case of DDKEYYSVHNK [MET_Y1235_Y1230D], the enrichment score is inactive: 0.655.

On to GQECEYPPTQD [METAP2_Y137], for which the enrichment score was inactive: 0.411.

Consider QVQQIYSDSDL [MIB1_Y376_R371Q], for which the enrichment score is inactive: 0.789.

In the case of FGLTLYPNSRE [MEP1A_Y472_V469L], the enrichment score is inactive: 1.66.

As for DDKEFYSVHNK [MET_Y1235_Y1230D_YF], the enrichment score is inactive: 0.56.

Regarding LARDMCDKEFF [MET_Y1230_Y1230C_YF], the enrichment score was inactive: 0.598.

SELVRYDARVH [MET_Y971]: the enrichment score is inactive: 0.594.

Regarding QELRRYLKSGV [MICA_Y194], the enrichment score was inactive: 0.576.

As to FGVTLYPNSRE [MEP1A_Y472], the enrichment score was inactive: 1.35.

The target in the next experiment is SHP2 N-SH2 domain T52S. The description is as above. The settings on record: peptide library: pTyr-Var.
Turning to HFGCIYHGTLL [MET_Y1093_V1092I], the enrichment score is inactive: 1.32.

LARNMYDKEYY [MET_Y1230_D1228N]: the enrichment score was inactive: 0.478.

For LARNMYDKEFF [MET_Y1230_D1228N_YF], the enrichment score is inactive: 0.333.

As for HFGCVYLGTLL [MET_Y1093_H1094L], the enrichment score was inactive: 1.14.

In the case of LARDMHDKEFF [MET_Y1230_Y1230H_YF], the enrichment score is inactive: 0.73.

Turning to MSIWPYLQKID [MFSD8_Y63], the enrichment score is inactive: 2.18.

Turning to RGKLFYQEVPA [METTL11B_Y76_A72G], the enrichment score is inactive: 0.973.

In the case of GQECKYPPTQD [METAP2_Y137_E136K], the enrichment score was inactive: 0.6.

Take LARDMHDKEYY [MET_Y1230_Y1230H]: the enrichment score was inactive: 0.393.

Regarding DDKEYYSVHNK [MET_Y1235_Y1230D], the enrichment score was inactive: 0.659.

Regarding GQECEYPPTQD [METAP2_Y137], the enrichment score was inactive: 0.535.

As to QVQQIYSDSDL [MIB1_Y376_R371Q], the enrichment score was inactive: 0.806.

As to FGLTLYPNSRE [MEP1A_Y472_V469L], the enrichment score was inactive: 1.56.

Regarding DDKEFYSVHNK [MET_Y1235_Y1230D_YF], the enrichment score was inactive: 0.689.

For LARDMCDKEFF [MET_Y1230_Y1230C_YF], the enrichment score is inactive: 1.38.

Take SELVRYDARVH [MET_Y971]: the enrichment score was inactive: 0.544.

Consider QELRRYLKSGV [MICA_Y194], for which the enrichment score is inactive: 0.434.

Consider FGVTLYPNSRE [MEP1A_Y472], for which the enrichment score is inactive: 1.37.

A further experiment deals with SHP2 N-SH2 domain wild-type. Described as above. The settings on record: peptide library: pTyr-Var.
Regarding HFGCIYHGTLL [MET_Y1093_V1092I], the enrichment score was inactive: 1.85.

For LARNMYDKEYY [MET_Y1230_D1228N], the enrichment score was inactive: 0.763.

On to LARNMYDKEFF [MET_Y1230_D1228N_YF], for which the enrichment score was inactive: 0.624.

Turning to HFGCVYLGTLL [MET_Y1093_H1094L], the enrichment score is inactive: 2.12.

Consider LARDMHDKEFF [MET_Y1230_Y1230H_YF], for which the enrichment score is inactive: 0.559.

Consider MSIWPYLQKID [MFSD8_Y63], for which the enrichment score is inactive: 1.58.

With RGKLFYQEVPA [METTL11B_Y76_A72G], the enrichment score was inactive: 0.985.

Take GQECKYPPTQD [METAP2_Y137_E136K]: the enrichment score was inactive: 0.714.

For LARDMHDKEYY [MET_Y1230_Y1230H], the enrichment score is inactive: 0.331.

DDKEYYSVHNK [MET_Y1235_Y1230D]: the enrichment score was inactive: 0.741.

Take GQECEYPPTQD [METAP2_Y137]: the enrichment score was inactive: 0.71.

For the molecule QVQQIYSDSDL [MIB1_Y376_R371Q], the enrichment score was inactive: 0.762.

As to FGLTLYPNSRE [MEP1A_Y472_V469L], the enrichment score is inactive: 1.59.

In the case of DDKEFYSVHNK [MET_Y1235_Y1230D_YF], the enrichment score is inactive: 0.768.

On to LARDMCDKEFF [MET_Y1230_Y1230C_YF], for which the enrichment score is inactive: 0.912.

Take SELVRYDARVH [MET_Y971]: the enrichment score is inactive: 0.582.

With QELRRYLKSGV [MICA_Y194], the enrichment score is inactive: 0.635.

In the case of FGVTLYPNSRE [MEP1A_Y472], the enrichment score is inactive: 1.19.
